Source: patent US20240116997A1 (BRIGHT PEAK THERAPEUTICS, published 2024)

T1: IL-18 receptor (IL-18Rαβ) on cells (UniProt Q13478 19-541; O95256 20-599, limits assumed)
T1 sequence (looked up) 1: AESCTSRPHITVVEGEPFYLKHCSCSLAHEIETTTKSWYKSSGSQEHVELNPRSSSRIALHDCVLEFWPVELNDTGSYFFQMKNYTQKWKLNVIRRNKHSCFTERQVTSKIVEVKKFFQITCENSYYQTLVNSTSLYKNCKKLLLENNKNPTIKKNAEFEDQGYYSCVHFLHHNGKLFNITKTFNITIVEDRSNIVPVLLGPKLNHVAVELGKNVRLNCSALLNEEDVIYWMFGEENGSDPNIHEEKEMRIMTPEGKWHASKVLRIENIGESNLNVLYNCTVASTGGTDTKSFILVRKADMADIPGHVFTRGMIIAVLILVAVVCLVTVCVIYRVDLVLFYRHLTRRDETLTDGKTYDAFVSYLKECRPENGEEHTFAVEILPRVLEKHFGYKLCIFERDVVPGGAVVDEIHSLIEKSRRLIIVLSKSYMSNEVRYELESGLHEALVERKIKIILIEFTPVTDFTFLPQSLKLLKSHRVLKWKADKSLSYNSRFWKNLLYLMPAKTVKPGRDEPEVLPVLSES
T1 sequence (looked up) 2: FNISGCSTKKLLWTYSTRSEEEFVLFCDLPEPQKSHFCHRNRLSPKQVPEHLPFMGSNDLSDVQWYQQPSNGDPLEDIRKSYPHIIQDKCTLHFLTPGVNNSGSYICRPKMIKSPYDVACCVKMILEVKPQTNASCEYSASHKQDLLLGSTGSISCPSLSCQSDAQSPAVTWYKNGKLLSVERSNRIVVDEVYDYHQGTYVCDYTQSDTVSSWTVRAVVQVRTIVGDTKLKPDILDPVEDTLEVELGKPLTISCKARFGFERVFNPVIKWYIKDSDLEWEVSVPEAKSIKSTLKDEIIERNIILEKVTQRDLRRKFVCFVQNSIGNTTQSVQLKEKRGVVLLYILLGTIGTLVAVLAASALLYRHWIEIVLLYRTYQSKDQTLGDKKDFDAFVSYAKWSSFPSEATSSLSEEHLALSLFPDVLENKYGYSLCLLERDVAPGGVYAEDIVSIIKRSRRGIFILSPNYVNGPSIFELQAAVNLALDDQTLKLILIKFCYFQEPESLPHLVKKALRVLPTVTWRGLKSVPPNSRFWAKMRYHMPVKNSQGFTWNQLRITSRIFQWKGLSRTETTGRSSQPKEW


Biological target: T1, IL-18 receptor (IL-18Rαβ) on cells
Assay: cell-based or functional assay

Row | Binder | EC50 (nM), IFNγ induction, NK-92 cells [nM]
1 | IL-18 polypeptide SEQ ID NO: 37 (S55A) (ligand) not shown | 0.108
2 | IL-18 polypeptide SEQ ID NO: 38 (E06K) (ligand) not shown | 0.0567
3 | IL-18 polypeptide SEQ ID NO: 39 (E06K, K53A) (ligand) not shown | 0.0192
4 | IL-18 polypeptide SEQ ID NO: 40 (E06K, S55A) (ligand) not shown | 0.067
5 | IL-18 polypeptide SEQ ID NO: 41 (K53A, S55A) (ligand) not shown | 1.58
6 | IL-18 polypeptide SEQ ID NO: 51 (T63A) (ligand) not shown | 0.449
7 | IL-18 polypeptide SEQ ID NO: 52 (E06K, T63A) (ligand) not shown | 0.011
8 | IL-18 polypeptide SEQ ID NO: 53 (K53A, T63A) (ligand) not shown | 0.155
9 | IL-18 polypeptide SEQ ID NO: 36 (K53A) (ligand) not shown | 0.444

Biological target: T1, IL-18 receptor (IL-18Rαβ) on cells
Assay: cell-based or functional assay
Remark: another data set of the same source

Row | Binder | EC50 (pM), HEK-Blue IL-18R reporter assay [pM]
10 | IL-18 polypeptide SEQ ID NO: 39 (E06K, K53A) (ligand) not shown | 0.72
